Measured values as given in PubChem BioAssay AID504832 (National Center for Advancing Translational Sciences (NCATS), 2011).
Hit rate of the full screen: of about 310,000 compounds, about 18,000 (5.8%) were called active. The shares of active, inactive and inconclusive entries below differ from those in the screen. The call rests on the fitted dose curve; in most records, active means well fitted inhibition curve with a large enough effect; inconclusive means small, poorly fitted or top-dose-only effect, or another doubt; inactive means no such curve, though single readings can be large or run the other way. Potencies of inconclusive entries are left out as doubtful fits.

Experiment: Primary qHTS for delayed death inhibitors of the malarial parasite plastid, 48 hour incubation
Details: P. falciparum luciferase growth in erythrocytes; series mostly up to 28.7 µM; activity change, negative = inhibition: at the top concentration
Summary of the method: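 A one-generation exposure of luciferase-tagged malaria parasites in RPMI 1640/Albumax erythrocyte culture, 37 C and 5% CO2. Inhibition is inferred from decreased luminescence after adding detection reagent.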
On the % scale 0 is the no-effect control and ±100 the full control effect; potency means the concentration at half of the fitted maximal effect; tags describe the fitted curve by direction and shape.

| Compound | Potency | activity change, negative = inhibition |
| --- | --- | --- |
| CCC(C(=O)NCCc1ccc(C)cc1)n1nc(C)c2c(C)n(-c3ccccc3)nc2c1=O (centres undefined) | inconclusive [inhibitor, single point] |  |
| CNC(=O)O/N=C(\N)Cc1csc2ccc(Cl)cc12 | active: 3.7 µM |  |
| Cc1cc(N2C(=O)C(O)=C(C(=O)c3cc4ccccc4o3)C2c2ccc(OC(C)C)cc2)no1 (centres undefined) | inconclusive [inhibitor, partial curve, poor fit] |  |
| c1ccc(Cn2ncc3c(N4CCOCC4)ncnc32)cc1 | inconclusive [inhibitor, single point] |  |
| CC1CCN(c2ncnc3c2cnn3Cc2ccc(Cl)cc2)CC1 | inconclusive [inhibitor, partial curve] |  |
| CC1=CC(=C2C(=O)NC(=S)NC2=O)C=C(C(F)(F)F)N1Cc1ccccc1 | inconclusive [inhibitor, full curve, poor fit] |  |
| COc1ccc(OCCSc2nnc(-c3ccoc3C)n2C)cc1 | active: 8.28 µM |  |
| CCOc1ccc(NC(=O)c2ccccc2SC)cc1 |  | inactive: 123% |
| CCOC(=O)C1=C(C)NC2=C(C(=O)CC(C)(C)C2)C1c1coc2ccccc2c1=O (centres undefined) | inconclusive [inhibitor, single point] |  |
| COc1ccc(-c2noc(CCC(=O)NCCCN3CCN(c4ccc(F)cc4)CC3)n2)cc1 | inconclusive [inhibitor, partial curve, poor fit] |  |
| O=C(NC1CC1)c1ccc2c(c1)N(Cc1ccc(Cl)cc1)CCS2 | inconclusive [inhibitor, single point] |  |
| Cc1ccccc1-n1c(SCC(=O)c2c(N)n(C)c(=O)n(C)c2=O)nc2sc3c(c2c1=O)CCCC3 | active: 3.7 µM |  |
| COc1cc(NC(=O)CN2CCN(CC(=O)Nc3ccccc3OC)CC2)cc(OC)c1 |  | inactive: -19.5% |
| CC(C(=O)N1CCc2ccccc21)N(C)CC(=O)Nc1ccc(F)cc1 (centres undefined) | inconclusive [inhibitor, partial curve] |  |
| O=C(Nc1cc(Cl)ccc1O)c1cc2n(n1)C(C(F)(F)F)CC(c1ccc3c(c1)OCO3)N2 (centres undefined) | inconclusive [inhibitor, single point] |  |
| COc1ccc(C2=NN(C(=O)CSc3nc(=O)n4cc(C)ccc4n3)C(c3ccc(C)cc3)C2)cc1 (centres undefined) | inconclusive [inhibitor, partial curve] |  |
| CCN(Cc1ccccc1)C(=O)CN1C(=O)COc2ccc(S(=O)(=O)N3CCCCCC3)cc21 | active: 10.4 µM |  |
| CCCC(c1nnnn1C1CCCCC1)N1CCN(C(=O)c2ccco2)CC1 (centres undefined) | active: 3.7 µM |  |
| COc1ccc(/C(N)=N/OC(=O)c2cccc([N+](=O)[O-])c2C)cc1 | inconclusive [inhibitor, single point] |  |
| O=c1onc(-c2c(F)cccc2F)n1-c1ccccc1Cl |  | inactive: 4.36% [at 0.00184 µM] |
| COc1ccc(CC(=O)N/N=C(\C)CC(=O)Nc2ccc(N(C)C)cc2)cc1OC | inconclusive [inhibitor, partial curve, poor fit] |  |
| COC(=O)c1nc(NC(C)=O)n[nH]1 |  | inactive: -12.1% |

| Compound | Potency | activity change, negative = inhibition |
| --- | --- | --- |
| Cc1ccc(NC(=O)CN(C)C(=O)C(C)N2CCN(Cc3ccccc3C)CC2)cc1 (centres undefined) | inconclusive [inhibitor, single point] |  |
| Cc1cc(NC(=O)c2ccc(Cl)cc2)cc(C)c1OCC(=O)N1CCOCC1 |  | inactive: -3.18% |
| CN(C(=O)CSc1nnc(NC2CCCCC2)s1)C1CCS(=O)(=O)C1 (centres undefined) |  | inactive: -10.9% |
| COc1ccc(NC(=O)CC2Nc3ccccc3NC2=O)c([N+](=O)[O-])c1 (centres undefined) | inconclusive [inhibitor, single point] |  |
| O=C(CNS(=O)(=O)c1cccc(Cl)c1)OCc1csc(-c2ccccc2)n1 |  | inactive: 44.6% |
| O=C(CSCCc1ccccn1)Nc1ccc(Br)cn1 |  | inactive: 11.9% |
| O=S(=O)(c1ccccc1)C1(C2CC(c3ccccc3)=NO2)CC(O)C1 (centres undefined) |  | inactive: 35.5% |
| Nc1c(-c2ccc(Cl)cc2)cnc2c(-c3ccc(F)cc3)cnn12 |  | inactive: 195% |
| CCCc1nc2ccccc2c(C(=O)N(CC)CC(=O)NCc2cccs2)c1CC | inconclusive [inhibitor, partial curve] |  |
| COc1cc2cc(CN(CCCO)S(=O)(=O)c3ccccc3Cl)c(=O)[nH]c2cc1OC | inconclusive [inhibitor, partial curve, poor fit] |  |
| COCCCNC(=O)CCc1c(C)nc2c(-c3ccc(F)cc3)c(C)nn2c1C | inconclusive [inhibitor, partial curve] |  |
| O=C(CC1S/C(=N/N=C/c2ccco2)NC1=O)Nc1cccc(Cl)c1Cl (centres undefined) |  | inactive: -3.37% |
| COc1ccc(C[C@@H]2CN3C(=NC[C@@H]3Cc3ccc(O)cc3)N2C[C@H](C)NC(=O)CCC2CCCCC2)cc1 | active: 1.17 µM |  |
| COc1ccccc1C(CNC(=O)c1ccc(NS(=O)(=O)c2ccc(F)c(C)c2)cc1)N1CCCC1 (centres undefined) | active: 9.28 µM |  |
| CCOc1cc(S(=O)(=O)N2CCC(C(N)=O)CC2)ccc1F |  | inactive: 17.6% |
| Cc1ccc(S(=O)(=O)c2cc3c(=O)n4ccccc4nc3n(CCCN3CCOCC3)c2=N)cc1C | inconclusive [inhibitor, single point] |  |
| COc1ccc(-n2c(O)c(/C=N/Nc3nc(C)cc(C)n3)c3ccccc3c2=O)cc1OC | inconclusive [inhibitor, single point] |  |
| C=CCNC(=O)/C(=C/c1ccco1)NC(=O)c1ccc(Br)o1 | inconclusive [inhibitor, partial curve] |  |
| CC(=O)Nc1ccc(S(=O)(=O)NC2=C(N3CCN(C)CC3)C(=O)c3ccccc3C2=O)cc1 | inconclusive [inhibitor, partial curve, poor fit] |  |
| Cc1ccc(NC(=O)c2ccc3c(=O)n4c(nc3c2)CCCCC4)nc1 |  | inactive: 28.8% |
| COc1ccc(C(C(=O)Nc2ccc(C(C)C)cc2)N(Cc2ccco2)C(=O)CC2NC(=O)NC2=O)cc1 (centres undefined) | active: 1.47 µM |  |
| COc1ccc(OC)c(N(CC(=O)NC2CCCCCC2)S(=O)(=O)c2ccc(C)cc2)c1 | inconclusive [inhibitor, single point] |  |
